The chains are these.
B1: GBRAP_166_4935 (protein)
chain: SLEKIYEETKKKVIELAKKALTADEEERIDLAIEIEELLKEAKEKGLTPEQLKEILLEALKELEEDPEVAEFLLRMILAASEMDEELQDVILEALEEFKK
B2: GBRAP_160_4855 (protein)
chain: SEKLERALKIIEEEREFALEAVAEAPASQRAAIAEAIALQAVYDLIEEGLITEELEEELLKIVDKLRKELEANADASVEEHKALVEKAFKEMEKKVKELS
B3: GBRAP_160_4122 (protein)
chain: KEKELKTAKDNAEDFEETLKEIESLSPEEAATLAEVTLGQAILDFSELDGKFEELEEFSEEKLDELRKTRKEDPEKLKEKSKELLTEARDYYEKKAKELE
B4: GBRAP_74_6516 (protein)
chain: QAELLAALEAAAAAGDARAVAELAREIIETGSLEAIERAARIVVAFVEKHRDTLSEEELELLAEVLAELADELMERGGDSEVILAVARAAYELEKLVQAR
B5: GBRAP_11_2891 (protein)
chain: KKEKLKKAAELAEELVRVLEELLEKGVDNEELREEALELAEELLELAKKELDEATKKDVEIILELVKKALEDPENAEEYVREALAAARVLEGDLLLELEE
B6: GBRAP_11_2851 (protein)
chain: EKEKLKKVKKLAEELIKALEALIAAGTTDEELWKEVEKKLEELKKAVKELGNEFLKELVEQAKEDLEEAKKNPETRLEHVNNALAFARALLGEVLLLLEE
B7: GBRAP_52_5928 (protein)
chain: MEERARALAREIFEAAVAGDRERLRALLRRVVEELGPEEIALVIEKLAEITIEAGPEHYDLFAEIMDLLEDEVEEAGKDVDEVQYAIAKAAGKLYDAEQA
B8: GBRAP_177_5016 (protein)
chain: LTLEELRAMIEDPNTSAKEAFEALEEAAADITAEEAIELLAEILRKKEMDEEAYKAAARAILTLSEVKGVTLAEVIGYLIEHVEAEKVEAVLEAIAEVRD
B9: GBRAP_11_2900 (protein)
chain: KKEKLEKLAKLLEEAIKLLEKILKEGPENKELLEKLLKVAEEALKLAKEVLDESSVELMKELIELIKKAKEDPENAEEYLKKALAVARVLLGQVLLEIEE
B10: GBRAP_160_4153 (protein)
chain: SEEIEKLIKEINEIADEAIKMMEGETPEQAKTIARVALGEMLLLVEENEAVSEETEDKIGEVVDATEATLKANPNLTVEEVKALLNEARDKIVKILKEES
B11: GBRAP_166_4956 (protein)
chain: SLEEVIEKTKKELKELAEKMKDANPEEQLELYIEMAETLQEAKDAGISREELLELAELALKLVKEAGGDVDHLLGVIEMFVDIDEEELDKLEKIAEEVKK
B12: GBRAP_128_3240 (protein)
chain: WDPAVLAEAEALIETIVTGSVEEAREATAALVDLMSTVDLETAEKIAELLIEALKKLSAEKLDAVADTLEENRDKLDPEKATLANDVQIEALNLAEEKEE
B13: GBRAP_48_5817 (protein)
chain: MEFDEEKLKKLVEETVEEMYELYKEAKEAGLSEEEILKLVRAELGDLALELEEAGFEKAADYLLERENREEVARRLVEFFDRGELEEAKKYLFEKLKEAE
B14: GBRAP_52_6279 (protein)
chain: SEEEVEKVAKEIVELIKEGKLEEAIELARKAAREFSLEEVLRLGELLIKQIAELSPEQLDLALEVMEALAEELERIFGAEEEADILEARAAAAAYQNLQK
B15: GBRAP_160_4183 (protein)
chain: SEEIEELKEFIDERFEEAIELIKNETIEERITIVSVEFGQIILEASESESVSDELVDKIAEIEDELVNTMKENPNLTYEETKKLIEEAREKIKKALEEDE
B16: GBRAP_52_5949 (protein)
chain: MLEEALKLLKEALEAVLAGKREEARKILRELVEKFDLETIKKAAVELAKSLAGASDEELEAAVELFDMLEEELIEAGVPEEEAELIRGDALAALAKAHAA
B17: GBRAP_11_2636 (protein)
chain: KKEKLEEAARKAKEAIEVVERLIEEGVDNEELREELRRLLEELAKLVEEHGDEALKRLVEIAKELFEEAEEDPENREFYLKLLKNTLEILRAELEEEIEE
B18: GBRAP_160_4357 (protein)
chain: SERAEKLIKEIREATERVISELGRLSREEVAAIAAGEFGAIAMDAVEDESMPDEVVDIIVEAEDEILRALEELRDASREEVARRIREITERAIKEIKEAA
B19: GBRAP_35_5597 (protein)
chain: DTDQLAVDSLIDMIEATIEGIPELPVDTLVSITNLLIKDAEELRKQLKNNVEALERIAKALEKLKEALKKHHGDNPKVQETIEKVEKAIKELKEQAKKAL

In all, about 4,500 sequences were measured (“median log2 fold change of GCK-ALFA target abundance (FLAG IP / Myc IP barcode read proportion)”: median about 0.078, lowest 2% from about -0.6 on). Some of the results follow.

GABARAP, O95166, sequence (O95166 whole entry, the tested form may be a part): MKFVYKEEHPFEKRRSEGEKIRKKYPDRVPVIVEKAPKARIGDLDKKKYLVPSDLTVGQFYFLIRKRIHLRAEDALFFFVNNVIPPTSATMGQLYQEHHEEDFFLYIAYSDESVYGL

The target in the assay is GABARAP, O95166. Nature of the assay: median log2 fold change of GCK-ALFA target abundance (FLAG IP / Myc IP barcode read proportion) (log2 ratio); each designed protein is fused to an ALFA-tag nanobody in HEK293 cells to bring the named protein to FLAG-tagged glucokinase (GCK); Myc marks an untargeted standard; higher = target protein stabilised (more abundant). The conditions noted are these: target protein: 3xFLAG-MCP-GCK-ALFA reporter; HEK293 landing pad (RPLP). The essentials:
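Sequencing of reverse-transcribed, amplified circular RNA barcodes from anti-FLAG and anti-Myc immunoprecipitates provided the readout for an ALFA-nanobody-fused binder library recombined into HEK293 landing-pad cells. Those cells were induced with 2 μg mL^−1 doxycycline, transfected with a plasmid expressing a FLAG-tagged target and a Myc-tagged standard, and lysed after 48 h. Target abundance is the per-binder median log2 ratio of FLAG to Myc barcode read proportions. Only barcodes at a proportion of ≥10^−7 in both replicates and binders with ≥3 barcodes per replicate were kept, with a 10^−6 pseudocount added before the two replicates were pooled.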
Consider B1, for which the “median log2 fold change” value was found to be 0.184.
For the molecule B2, the “median log2 fold change” value was -0.374.
With B3, the “median log2 fold change” value came to 0.213.
Regarding B4, the “median log2 fold change” value was -0.0152.
With B5, the “median log2 fold change” value was determined as 0.326.
Take B6: the “median log2 fold change” value was determined as 0.0512.
The same measure for B7: -0.204; for B8: 0.0755.
As to B9, the “median log2 fold change” value was -0.127.
Take B10: the “median log2 fold change” value was -0.642.
Take B11: the “median log2 fold change” value amounted to 0.15.
With B12, the “median log2 fold change” value is 0.256.
Take B13: the “median log2 fold change” value came out at 0.16.
The figure for B14 is -0.047; for B15 it is -0.0258.
The same measure for B16: 0.0973; for B17: -0.275.
In the case of B18, the “median log2 fold change” value is -0.167.
Regarding B19, the “median log2 fold change” value amounted to 0.00193.

The record behind these values is the supplement of paper PMC12632987.
